Experimental data from the supplement of paper PMC8728848.
Some of the results follow.

How the values were obtained:
Experiment in all cases: glycan array binding signal (z-score within array); higher = stronger binding
Settings in all cases: glycan notation: IUPAC condensed, linker removed
[1] = target: GlcNAc(b1-3)Gal(b1-4)GlcNAc
In short: (§1)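 Glycan array data were curated from 3228 arrays in the Consortium for Functional Glycomics database and kept only where the protein sequence was available. Glycan names were converted to IUPAC-condensed notation, and columns mapping to the same glycan were averaged. The binding signal is a within-array Z-score, averaged across arrays of the same protein sequence at different concentrations or buffers and across linkers. Negative Z-scores can be read as non-binding.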

[2] = target: GlcNAc(b1-3)Gal(b1-4)GlcNAc(b1-2)Man(a1-3)[GlcNAc(b1-3)Gal(b1-4)GlcNAc(b1-2)Man(a1-6)]Man(b1-4)GlcNAc(b1-4)GlcNAc
In short: as §1

[3] = target: GlcNAc(b1-3)Gal(b1-4)GlcNAc(b1-2)Man(a1-3)[GlcNAc(b1-3)Gal(b1-4)GlcNAc(b1-2)Man(a1-6)]Man(b1-4)GlcNAc(b1-4)[Fuc(a1-6)]GlcNAc
In short: as §1

[4] = target: GlcNAc(b1-3)Gal(b1-4)GlcNAc(b1-2)[GlcNAc(b1-3)Gal(b1-4)GlcNAc(b1-6)]Man(a1-6)[GlcNAc(b1-3)Gal(b1-4)GlcNAc(b1-2)Man(a1-3)]Man(b1-4)GlcNAc(b1-4)GlcNAc
In short: as §1

[5] = target: GlcNAc(b1-3)Gal(b1-4)GlcNAc(b1-3)Gal(b1-4)GlcNAc
In short: as §1

[6] = target: GlcNAc(b1-3)Gal(b1-4)GlcNAc(b1-3)Gal(b1-4)GlcNAc(b1-2)Man(a1-3)[GlcNAc(b1-3)Gal(b1-4)GlcNAc(b1-3)Gal(b1-4)GlcNAc(b1-2)Man(a1-6)]Man(b1-4)GlcNAc(b1-4)GlcNAc
In short: as §1

[7] = target: GlcNAc(b1-3)Gal(b1-4)GlcNAc(b1-3)Gal(b1-4)GlcNAc(b1-2)Man(a1-3)[GlcNAc(b1-3)Gal(b1-4)GlcNAc(b1-3)Gal(b1-4)GlcNAc(b1-2)Man(a1-6)]Man(b1-4)GlcNAc(b1-4)[Fuc(a1-6)]GlcNAc
In short: as §1

[8] = target: GlcNAc(b1-3)Gal(b1-4)GlcNAc(b1-3)Gal(b1-4)GlcNAc(b1-2)[GlcNAc(b1-3)Gal(b1-4)GlcNAc(b1-3)Gal(b1-4)GlcNAc(b1-6)]Man(a1-6)[GlcNAc(b1-3)Gal(b1-4)GlcNAc(b1-3)Gal(b1-4)GlcNAc(b1-2)Man(a1-3)]Man(b1-4)GlcNAc(b1-4)[Fuc(a1-6)]GlcNAc
In short: as §1

[9] = target: GlcNAc(b1-3)Gal(b1-4)GlcNAc(b1-3)Gal(b1-4)GlcNAc(b1-3)Gal(b1-4)GlcNAc(b1-2)Man(a1-3)[GlcNAc(b1-3)Gal(b1-4)GlcNAc(b1-3)Gal(b1-4)GlcNAc(b1-3)Gal(b1-4)GlcNAc(b1-2)Man(a1-6)]Man(b1-4)GlcNAc(b1-4)GlcNAc
In short: as §1

[10] = target: GlcNAc(b1-3)Gal(b1-4)GlcNAc(b1-3)Gal(b1-4)GlcNAc(b1-3)Gal(b1-4)GlcNAc(b1-2)Man(a1-3)[GlcNAc(b1-3)Gal(b1-4)GlcNAc(b1-3)Gal(b1-4)GlcNAc(b1-3)Gal(b1-4)GlcNAc(b1-2)Man(a1-6)]Man(b1-4)GlcNAc(b1-4)[Fuc(a1-6)]GlcNAc
In short: as §1

[11] = target: GlcNAc(b1-3)Gal(b1-4)GlcNAc(b1-3)Gal(b1-4)GlcNAc(b1-3)Gal(b1-4)GlcNAc(b1-2)[GlcNAc(b1-3)Gal(b1-4)GlcNAc(b1-3)Gal(b1-4)GlcNAc(b1-3)Gal(b1-4)GlcNAc(b1-6)]Man(a1-6)[GlcNAc(b1-3)Gal(b1-4)GlcNAc(b1-3)Gal(b1-4)GlcNAc(b1-3)Gal(b1-4)GlcNAc(b1-2)Man(a1-3)]Man(b1-4)GlcNAc(b1-4)[Fuc(a1-6)]GlcNAc
In short: as §1

[12] = target: GlcNAc(b1-3)Gal(b1-4)GlcNAc(b1-3)Gal(b1-4)GlcNAc(b1-3)Gal(b1-4)GlcNAc(b1-3)Gal(b1-4)GlcNAc(b1-2)Man(a1-3)[GlcNAc(b1-3)Gal(b1-4)GlcNAc(b1-3)Gal(b1-4)GlcNAc(b1-3)Gal(b1-4)GlcNAc(b1-3)Gal(b1-4)GlcNAc(b1-2)Man(a1-6)]Man(b1-4)GlcNAc(b1-4)GlcNAc
In short: as §1

[13] = target: GlcNAc(b1-3)Gal(b1-4)GlcNAc(b1-3)Gal(b1-4)GlcNAc(b1-3)Gal(b1-4)GlcNAc(b1-3)Gal(b1-4)GlcNAc(b1-2)Man(a1-3)[GlcNAc(b1-3)Gal(b1-4)GlcNAc(b1-3)Gal(b1-4)GlcNAc(b1-3)Gal(b1-4)GlcNAc(b1-3)Gal(b1-4)GlcNAc(b1-2)Man(a1-6)]Man(b1-4)GlcNAc(b1-4)[Fuc(a1-6)]GlcNAc
In short: as §1

[14] = target: GlcNAc(b1-3)Gal(b1-4)GlcNAc(b1-3)Gal(b1-4)GlcNAc(b1-3)Gal(b1-4)GlcNAc(b1-3)Gal(b1-4)GlcNAc(b1-2)[GlcNAc(b1-3)Gal(b1-4)GlcNAc(b1-3)Gal(b1-4)GlcNAc(b1-3)Gal(b1-4)GlcNAc(b1-3)Gal(b1-4)GlcNAc(b1-6)]Man(a1-6)[GlcNAc(b1-3)Gal(b1-4)GlcNAc(b1-3)Gal(b1-4)GlcNAc(b1-3)Gal(b1-4)GlcNAc(b1-3)Gal(b1-4)GlcNAc(b1-2)Man(a1-3)]Man(b1-4)GlcNAc(b1-4)[Fuc(a1-6)]GlcNAc
In short: as §1

[15] = target: GlcNAc(b1-3)Gal(b1-4)GlcNAc(b1-3)Gal(b1-4)GlcNAc(b1-3)GalNAc
In short: as §1

[16] = target: GlcNAc(b1-3)Gal(b1-4)GlcNAc(b1-3)GalNAc
In short: as §1

[17] = target: GlcNAc(b1-3)Gal(b1-4)GlcNAc(b1-3)[GlcNAc(b1-3)Gal(b1-4)GlcNAc(b1-3)]GalNAc
In short: as §1

[18] = target: GlcNAc(b1-3)Gal(b1-4)GlcNAc(b1-6)[Gal(b1-3)]GalNAc
In short: as §1

[19] = target: GlcNAc(b1-3)Gal(b1-4)GlcNAc(b1-6)[GlcNAc(b1-3)Gal(b1-3)]GalNAc
In short: as §1

[20] = target: GlcNAc(b1-3)Gal(b1-4)GlcNAc(b1-6)[GlcNAc(b1-3)]Gal(b1-4)GlcNAc
In short: as §1

[21] = target: GlcNAc(b1-3)GalNAc
In short: as §1

[22] = target: GlcNAc(b1-3)Man
In short: as §1

[23] = target: GlcNAc(b1-3)[GlcNAc(b1-4)][GlcNAc(b1-6)]GlcNAc
In short: as §1

B1: GNA (Galanthus nivalis), P30617 (protein)
chain: MAKASLLILAAIFLGVITPSCLSDNILYSGETLSTGEFLNYGSFVFIMQEDCNLVLYDVDKPIWATNTGGLSRSCFLSMQTDGNLVVYNPSNKPIWASNTGGQNGNYVCILQKDRNVVIYGTDRWATGTHTGLVGIPASPPSEKYPTAGKIKLVTAK
glycan array binding signal (z-score) [1]: -0.254 | glycan array binding signal (z-score) [2]: 0.24 | glycan array binding signal (z-score) [3]: 0.56 | glycan array binding signal (z-score) [4]: -0.068 | glycan array binding signal (z-score) [5]: -0.196 | glycan array binding signal (z-score) [6]: -0.01 | glycan array binding signal (z-score) [7]: 0.014 | glycan array binding signal (z-score) [8]: -0.072 | glycan array binding signal (z-score) [9]: -0.12 | glycan array binding signal (z-score) [10]: -0.013 | glycan array binding signal (z-score) [11]: -0.107 | glycan array binding signal (z-score) [12]: -0.108 | glycan array binding signal (z-score) [13]: -0.075 | glycan array binding signal (z-score) [14]: -0.126 | glycan array binding signal (z-score) [15]: -0.15 | glycan array binding signal (z-score) [16]: -0.187 | glycan array binding signal (z-score) [17]: -0.172 | glycan array binding signal (z-score) [18]: -0.17 | glycan array binding signal (z-score) [19]: -0.148 | glycan array binding signal (z-score) [20]: -0.158 | glycan array binding signal (z-score) [21]: -0.197 | glycan array binding signal (z-score) [22]: -0.199 | glycan array binding signal (z-score) [23]: -0.159
